# Assay results from the supplement of paper PMC10681739.
# Over roughly 2,700 sequences, “arbitrary fluorescence units” has its median near 4,100; the highest 2% begin near 54,000. This is one part of the list.
# Molecular target: T1, ETS1 (UniProt P14921)
# T1 sequence: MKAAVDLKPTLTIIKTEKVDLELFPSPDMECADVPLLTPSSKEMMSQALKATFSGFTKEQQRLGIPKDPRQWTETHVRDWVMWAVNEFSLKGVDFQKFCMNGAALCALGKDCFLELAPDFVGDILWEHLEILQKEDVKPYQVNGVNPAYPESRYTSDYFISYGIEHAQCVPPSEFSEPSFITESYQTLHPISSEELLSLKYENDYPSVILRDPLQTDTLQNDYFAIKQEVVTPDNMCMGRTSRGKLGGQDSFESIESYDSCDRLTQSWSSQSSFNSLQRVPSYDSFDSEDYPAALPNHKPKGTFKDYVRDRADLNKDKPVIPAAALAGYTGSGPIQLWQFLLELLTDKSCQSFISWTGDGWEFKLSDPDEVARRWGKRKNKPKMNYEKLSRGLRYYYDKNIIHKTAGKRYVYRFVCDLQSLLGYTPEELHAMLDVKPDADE
# Experiment: ETS1 binding intensity (PBM fluorescence) (arbitrary fluorescence units); higher = stronger binding
# Conditions: ETS1 concentration 10 nM
# Description: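 gcPBM on wild-type 36-bp genomic probes with two neighbouring ETS1 sites (4-24 bp apart). Recombinant human ETS1 (10 nM) was detected with anti-ETS1 antibody fluorescence. Values are medians over 3 replicate spots. The probes sit in constant array flanks that are not printed.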
row,Sequence,ETS1 binding intensity
1,GTTGGCAGAGGAAGCTCACCCCGAGGAAGTCTCTCG,258
2,GGAGCGGAAAAGTAATTTGATCCCGCATTTCCTGCT,2090
3,CGCCGCCATCCGCCGCCGCAGCCAGCTTCCGCCGCC,3580
4,GGAGGTCGCAGCCGGAAGCGGAAGAGGCGCTCGGAG,6900
5,CTAATGCTGCATAGGAAGGGGGATGTGGCTGCAGGA,244
6,CAGCTTTAACATCCTGTTGCATATCCTTGGTAGAAC,21500
7,AAACGGAAGCCCAGCGTCACCAGCTTGCTTCCTGAG,476
8,GCCCCTCCACCCTTCCTGCCCGGAAGTCCTGCGCGC,6050
9,CTATGGTAGGAAACCCAGAAAACAGGAAGTGGCCTC,3030
10,TGAGCACATCCTCGCCGGCGCCCCCTTCCGCGCTGC,1410
11,GTAGCAGACAGGAAGCTAGAAGAGGAAGTCTCAGAT,8100
12,GGGTGCGGAAACGCGGCAGCCGCGGCCGGATGCTGC,2710
13,CAACGACTCACACAGGAAGGAAGCCCCCATCTGGTT,476
14,TTCTTCACAAGCGGATGTCACTTCCTGCCTGTGACA,17200
15,GCAGCTTGAACATCCGGGAGCAGGAAAGTGGGAGGA,12900
16,ATGCCTTTTCCCGTTGTGGCTGGGACTTCCGCTCCG,4400
17,GGAGCTTCCTCCAAGACCAGGCTGCCACATCCTGTG,6860
18,GCACTTTCCTGGTAAATGCTCTCCTTAGGAAGTAAC,728
19,TTTTTACCACATCCTGGTAAGGGGGAAATGGCAGGT,7900
20,CGGCGTCAGCGGAACGGGCGGCTTCCGGCCGCGGCG,8120
21,TGAAGGCCAGGATGCGTGCTACCCGGATGTGTGCCC,1090
22,CCAACAGGAAGTGCTGTTTGGCTAGTTTCCTCCCAC,16500
23,TGCCTTTTTCGGAAACACCCCCTTCCTCTCTTGACA,259
24,TTCTTCACTTCCTCAGTCTATCTGTTTCCTCTGATT,4770
25,CCTCCCGGAAGCCGCTGGCCCGCGCCGGAAAAGGTG,7300

row,Sequence,ETS1 binding intensity
1,ACTGCCTTCCTGGCCTGGTGGTGAGAGGAAGTCGGG,2260
2,ACAGAGGAAGTTCGGGGCATGTCTGTCATCCGCCTG,955
3,CATACGTTTCCTATAATCTAACCACATCCTGTGACT,4560
4,TAAACTTTCCGTCCGCGCGCCACAGCCGGAACTATA,740
5,TGCCCTCACACAGGAAGTCAGGAAACCCAGGGGGCA,8570
6,TCTGCCTGGACATCCAGGCATTTCCGTACATCCTCT,1080
7,GTAATACTTCGGGGAAATGCAGGATGCAGCTGCTGC,243
8,TAGCATCCTTTCCTGTTTTTCTCCTTCCTGCTGCCT,15600
9,TTGCGCGGCACGGAAACTCACTTCCGGCCCTGCGCA,22400
10,AGGGGTGTCGACGGAAACTCGGAAATGGTCCCCTAG,428
11,CTCAGGAAAAAATGTTCCTAGGCAGGCAGGATGTGG,231
12,TGAGGCAGGAAAATCACTTGAAACCGGAAGGCTGAG,562
13,AAAAAACCGGAAATGCACCCACAGAGGAAGCAACCT,37000
14,CAACAGGATACGGTGAGTCATTTCAACTTCCTGCTA,3410
15,GTGAGAATGTTTCCTAACAGGAGGAAGTCTGCAACG,240
16,GCATGCTCAGGAAATGTCAGTGCTTCCCGTTCACCC,986
17,GGAGGAGGCGGAGGAAACCCGGAAAAGGGGCCGCGC,382
18,CGGACCGGAAGTTGGGGTGACGCAATTTCCGGCGCG,54200
19,TTCAAACAGGATGCCCCTGGAGCTCGGATGTTAGGG,1770
20,CGCGAGGGTGAATTTCCGTTTCCGGCGGTGTCCAAG,16500
21,TGAAAGCATCCTGACTCATCTAGACAGGATGCTGTG,2530
22,GCAGAAGCCGGAACTGAGATACAGGAAGTTGAGTCT,8870
23,TGCTAAACTTCCCTGGGCCCCATCAGGAAATGTGAA,185
24,CTGGCCACATCCCGCCACGCCCCGAGGAAATGCAAA,1460
25,CGGGAGAGACCATTTCCTCCTTCCTGGAGGGATGAG,5920

row,Sequence,ETS1 binding intensity
1,AAGTCAGGAAACAGTAGGTGCTGGAGAGGATGTGGA,305
2,AAAAAGGAAACTGTTCTCATGAAAGCAGGATGTTGG,464
3,TGACTTCAACAGGAAGCCACAGGATGTTCACCTGCA,3210
4,TGGGCAGGAAAGGGCCTGGCTCACACTTCCCCTCGA,388
5,GCCAACTTCCCGGCCTGCAGGGTGGCAGGAAGCCTG,4450
6,TAAGAGCGGAAGGTAGTGGACTTAAAGGAAATGATG,783
7,CTGTCAAGCAGGATGTCAGCAGTTTCCTTTGCATGA,4720
8,TTTACATCCTTCATTTCTTCAGCAAACATCCGGTCA,17200
9,CCGGCTGCCGAGCTTCCTCTTCCTGGCAAGCAGGCG,2730
10,GCTCAGGAAGTGTGCATTAGTCACACATTTCCCACA,1830
11,TAGGCAGGAAATGCGTACCCGGCCCGAGGAAGCAGG,6200
12,CTGATTTCCTTTTGCATCTCAAACCCGGGAAGTTTG,7740
13,AACAGTGCGTTTCCTTGAAAGCAGGAAATATTCTTA,1310
14,TCAGTGTTTCATTTCCTGCCGGATCTGATTCAGGTC,20700
15,CCAGACGAAGGAAGTGACATCACCTTCCTGGGTCTT,827
16,GCATCCATCCGGCGCTGGGGAGCAGAGGAAGTGGTC,14900
17,ACAGTAGCAGCTTCCTCAAGCAGGAAGTATGAAAAG,3420
18,TGACCTCACTTCCTGTCGCCGAGCGGAAGTGACGAA,52200
19,CACCCACATCCTCCCTGAGTCACTACATCCTTGAAA,9640
20,GCTGCAACTTCCGGTGCGCTAGCCGGAAACGCGGGT,78200
21,GGGGCCGGATCTGCTGCCTGACAGGGCTTCCTGGCC,687
22,GCGGCTGAGGAAATTACTGACACCGGAAGTCACGTG,7110
23,TCCCACACGCCCCGGAACAGGAAATATCCCGGGCCC,1380
24,ACAGCCCTCCCGGAAGTCGGCGGAAAAGGGGCCTGG,14500
25,ACCTTGAGCATGGCTTCCGGGAAGTTGCGGTTGAAG,5120

row,Sequence,ETS1 binding intensity
1,ACAGTGCGGAAGACAAGAGGCCTTAGGAAGTGGGAA,191
2,CCTCACGGCGGAATCTCAAGCACTTCCGCTTGGCAC,8770
3,CAGCTAGGCTTCCTTCTCCTCCCTTCCTGTGCCTCC,1100
4,CTCCTAACCAGGATGTTCACTGAGGATGTTAACACA,1460
5,ACTGGCAGGAAGGGCAGTTTTGGCAGGAAAAGCCAT,991
6,GCAACACCGGAAAAGGTCCGGCTGCTTCCGGTAAAA,16200
7,TGTAAGGAAATGGTTAGTCTATTTTTAGGATGTGGC,195
8,TTTGAGCAGGAAAACTACGCGACAGGAAGTGTATAC,1750
9,GGGGCCGGAAGCTTTCGGATAACAACTTCCGCTCGG,20100
10,GAGCTTGCTTCCTGTTAACCCAGGCATCCTGTGCAG,29500
11,GTGACAGGATGTTATAAGGCCCCTCTTTCCGGCTCT,7350
12,CGCAAGTGCGGAACTGCGTTTGTTTCCGGCGTGGGT,2520
13,TTCACTTCCCTCCTCCAAATCTCCCACTTCCTCTTG,5960
14,GGTCAGGAAGTAGGAGTCTGGCCTAACTTCCTTTCT,4120
15,TGTACTTCCGGAGCTAAGTTGCCTGAGAGGAAATGG,49000
16,GCCGCGGCGGAAGAGGCTCGGGGAGGAAGTTATTTG,1880
17,GGGAGGACTTCCTGGCTGAATTTGGGAAGGAAACAA,15200
18,CCCGTTTCCGTGTAATAGTCTTTCACAGGAAGTCAG,8060
19,AGAGCAGCCCCGGAACAGGAGCTTCCCGGCACCGGC,171
20,GTGAGTGCGTTTCCGCCGGTTTTTCCTGCCTGAGGA,15000
21,GACAGGAAGGCTACAGGCTGCCTGTGGCTTCCGTGT,386
22,AATTGTTTCCTTTGAAAAGCCATCACTTCCTCTCCT,4750
23,GGGCGGAAGGGAGGCCGCCCCGAGAGCCGGAAGCCT,678
24,TCCCAGCTGTCTGCTTCCTTCCTGTGTGTCATTCGT,3230
25,TTTCAACCTCACATTTCCCTTCCTCACTACCCTAGC,264

row,Sequence,ETS1 binding intensity
1,GAAAACATAGCACAGGAAGGAAGCTGTTGCACCATA,572
2,GAGGCAGGAAGCACTCATTCCATATCAGGAAGTGAT,3790
3,ACTTTGCAGACAGGAAGTAAAGGAAATGGGACCCCA,13200
4,GAACAAGGCCTTCCTGAAGCAATTTCCTGATTTGAC,1860
5,TGGCAGGATGGAGTGGGTGCAAGCAGGGGAAATGTC,173
6,AGGGGGGATGTGTGTGGCCAAGAGTCCGGAAATGGG,2280
7,CAGGCAGGAAGGCATCAGTGTGGCATTTCCTGTGTA,4100
8,CCCCTACTCTTCCGGGCAGCCCACTTCCGCGGCCAC,9240
9,TCTGCAGTTTCCTGATAAGTGTGTTTCCGGCTTTTG,6480
10,ACATAAGACATGAGGATGTCTTCCTGACTTGCGTCC,208
11,ACCTCAGGAAGCTCTGGCAGGGCTTTAGGAAGCGCA,259
12,TTGCTGCATCCGCAGGAGCCCAGGCGGAAGAGATGC,4850
13,CACCCAGGGAAGTGGAGCTACAGACAGGATGTTTCA,491
14,CAGATAATCACAGGAAGTCATTTCCTTTGGTGATCT,6490
15,TCAGCTGGCACTTCCCCTTGGTTTCCTGTTACATTT,5390
16,AAACTCATGAGGAAGCTAGTAGAGGAAGTGGGTCAT,385
17,CACAGGAAACGGTGTGAGGAGACTCCATTTCCCCAG,8050
18,CGGGAGGTTCCTGCCAATGCCGGGAGGAAGAGCAAC,466
19,CGCAGTGACTCATCCTGCCCCTTTCCGGTGAAGCCC,3890
20,AAAGCCAGGAAATGCCAGGGCTGGGAGGAAGCAGAA,1770
21,CCAGCGGAAACAGCCCTTCTCTGCCACTTCCTGTCC,14000
22,TGTCCCCAGAGGAAGCTCCCTCTTTCCTGTGCCTCC,647
23,GGTCCATCCGGAGCCACTCCGCGCCCCGGAAAAGCT,7400
24,GTGCTGCCATCCTGTGGCCATTGCAGGAAGTGTGCC,1860
25,CTTATCTTACTTCCTTATCACACTTCCTGCCCTGAG,10600
